Some of the results follow. Each Rep nickase domain was tested in vitro on the same pool of single strands for 1 h at 37 °C with 3 µM enzyme; only the middle of the 90-letter strands is printed. Values are log2 of uncut reads against the no-enzyme pool; strong cutting gives strongly negative numbers. There is no active / inactive call. Reads are scaled to the total, so uncut sequences can rise above 0 when many others are cut.
Assays:
Experiment in all cases: uncleaved DNA left, log2 of reads against the no-enzyme library (log2 ratio); higher = less cleavage (more negative = more Rep cleavage of the k-mer); sequences stand for … in CTCGTCCG…ACCGGAGA
[1] = test system: T1, Rep nickase domain of Muscovy duck circovirus
T1 sequence (residues 1-111, tag not shown): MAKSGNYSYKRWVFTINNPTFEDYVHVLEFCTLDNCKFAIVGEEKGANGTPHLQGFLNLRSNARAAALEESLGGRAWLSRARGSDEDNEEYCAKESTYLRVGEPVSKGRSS
Experimental: (§1)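 A pool of 90-nt single-stranded DNAs with seven random bases just before the constant AC of the nick site (name = the seven bases) was cut by 3 µM recombinant His6-SUMO-tagged Rep nickase domain (300 nM DNA, 50 mM HEPES pH 8.0, 50 mM NaCl, 1 mM MnCl2, 1 h, 37 °C, three replicates). Uncut DNA was amplified and sequenced.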

[2] = test system: T2, Rep nickase domain of banana bunchy top virus
T2 sequence (residues 1-94, tag not shown): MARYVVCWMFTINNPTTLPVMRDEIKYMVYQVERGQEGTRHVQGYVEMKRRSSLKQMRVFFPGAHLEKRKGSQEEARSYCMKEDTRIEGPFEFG
Experimental: as §1

[3] = test system: T3, Rep nickase domain of cabbage leaf curl virus
T3 sequence (residues 1-116, tag not shown): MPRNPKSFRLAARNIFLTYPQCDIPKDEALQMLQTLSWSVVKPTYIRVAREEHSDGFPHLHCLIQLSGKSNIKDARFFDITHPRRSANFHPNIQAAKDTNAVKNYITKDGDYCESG
Experimental: as §1

[4] = test system: T4, Rep nickase domain of chickpea chlorotic dwarf virus
T4 sequence (residues 1-124, tag not shown): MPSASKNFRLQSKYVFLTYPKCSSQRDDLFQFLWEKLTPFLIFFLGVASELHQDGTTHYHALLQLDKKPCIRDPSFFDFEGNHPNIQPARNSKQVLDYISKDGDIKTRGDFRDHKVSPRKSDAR
Experimental: as §1

[5] = test system: T5, Rep nickase domain of faba bean necrotic yellows virus
T5 sequence (residues 1-98, tag not shown): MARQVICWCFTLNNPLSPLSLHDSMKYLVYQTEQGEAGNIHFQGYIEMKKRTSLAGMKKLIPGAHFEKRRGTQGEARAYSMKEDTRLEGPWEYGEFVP
Experimental: as §1

[6] = test system: T6, Rep nickase domain of maize striate mosaic virus
T6 sequence (residues 1-117, tag not shown): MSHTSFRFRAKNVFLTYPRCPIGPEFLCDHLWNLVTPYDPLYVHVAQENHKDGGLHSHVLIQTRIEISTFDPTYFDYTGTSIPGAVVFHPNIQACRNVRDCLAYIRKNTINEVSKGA
Experimental: as §1

[7] = test system: T7, Rep nickase domain of porcine circovirus 2
T7 sequence (residues 2-116, tag not shown): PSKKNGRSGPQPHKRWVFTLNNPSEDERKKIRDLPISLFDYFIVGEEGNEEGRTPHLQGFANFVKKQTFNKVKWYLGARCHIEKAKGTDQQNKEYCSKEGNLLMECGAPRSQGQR
Experimental: as §1

[8] = test system: T8, Rep nickase domain of tomato yellow leaf curl virus
T8 sequence (residues 1-136, tag not shown): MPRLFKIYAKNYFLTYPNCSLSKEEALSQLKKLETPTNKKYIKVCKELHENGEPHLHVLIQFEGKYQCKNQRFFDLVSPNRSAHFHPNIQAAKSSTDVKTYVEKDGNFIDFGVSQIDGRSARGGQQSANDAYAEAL
Experimental: as §1

[9] = test system: T9, Rep nickase domain of wheat dwarf virus
T9 sequence (residues 1-137, tag not shown): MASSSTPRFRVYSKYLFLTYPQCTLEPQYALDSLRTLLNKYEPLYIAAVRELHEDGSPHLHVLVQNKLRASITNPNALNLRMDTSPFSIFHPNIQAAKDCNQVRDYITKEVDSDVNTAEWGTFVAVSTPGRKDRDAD
Experimental: as §1

| Sequence | uncleaved DNA left (log2) [1] | uncleaved DNA left (log2) [2] | uncleaved DNA left (log2) [3] | uncleaved DNA left (log2) [4] | uncleaved DNA left (log2) [5] | uncleaved DNA left (log2) [6] | uncleaved DNA left (log2) [7] | uncleaved DNA left (log2) [8] | uncleaved DNA left (log2) [9] |
| --- | --- | --- | --- | --- | --- | --- | --- | --- | --- |
| CAGCAAT | 0.058 | 0.0841 | 0.0962 | -0.445 | 0.0716 | 0.027 | -2.87 | -0.00292 | 0.133 |
| GTAGGGG | 0.123 | 0.0371 | 0.411 | 0.776 | 0.046 | 0.65 | 0.225 | 0.0931 | 0.143 |
| AACTTAT | -2.41 | -0.923 | -0.398 | -1.9 | -0.0563 | -0.571 | -4.13 | -0.162 | -0.0904 |
| AAGTTTT | -3.32 | -3.37 | -0.481 | -3 | -2.88 | 0.27 | -4.48 | 0.0212 | -0.0904 |
| GCCGATC | 0.0314 | -0.0725 | -0.0379 | 0.518 | 0.0157 | -0.0808 | 0.0345 | -0.0274 | 0.0455 |
| TAGTCTG | 0.0544 | -0.0282 | -0.000459 | 0.641 | -0.0481 | 1.14 | -1.01 | -0.14 | 0.00264 |
| GATACCT | 0.0484 | 0.1 | 0.218 | 0.242 | 0.0865 | 0.642 | 0.0125 | 0.125 | 0.247 |
| TCAGCTC | -0.0521 | -0.0877 | 0.159 | -0.294 | 0.00495 | -0.194 | -0.0302 | 0.00982 | -0.104 |
| GACGGTC | -0.089 | -0.128 | 0.292 | 0.604 | -0.0115 | 0.873 | 0.0219 | -0.125 | -0.05 |
| CCAACGG | 0.00525 | 0.137 | 0.524 | 1.31 | 0.128 | 1.56 | 0.218 | -0.0224 | 0.0457 |
| GAACAGG | 0.0228 | -0.0427 | 0.512 | 1.21 | 0.00914 | 1.31 | 0.105 | -0.0343 | 0.109 |
| TGATTGA | 0.0987 | 0.0755 | 0.00693 | 0.273 | 0.167 | -0.401 | 0.109 | 0.081 | 0.0384 |
| CAACCGC | -0.116 | -0.116 | -0.572 | -1.25 | -0.0635 | -0.784 | -0.327 | -0.105 | -0.229 |
| CTCCTAA | -0.0467 | -0.105 | -0.118 | -0.43 | -0.0816 | -0.615 | -0.137 | 0.0212 | 0.028 |
| ACCTGAA | 0.0185 | 0.0646 | -0.0219 | 0.0456 | 0.0913 | -0.326 | 0.0782 | 0.114 | 0.0592 |
| GGAGTAG | -0.0554 | -0.00452 | 0.149 | 0.489 | -0.0266 | 0.0611 | 0.143 | 0.0841 | -0.0615 |
| AGGAGCA | -0.0876 | -0.00909 | -0.068 | 0.145 | -0.0164 | -0.298 | -1.28 | -0.148 | -0.0238 |
| TGACTGG | 0.0588 | -0.00702 | 0.0403 | 0.572 | 0.00843 | 1.14 | 0.0455 | -0.141 | 0.0431 |
| CAACCGG | -0.111 | -0.0271 | 0.122 | 0.858 | -0.27 | 0.81 | -0.047 | -0.155 | -0.0278 |
| ATTGGCA | 0.0323 | -0.00658 | -0.447 | -0.745 | -0.116 | -1.05 | -0.0936 | 0.0306 | -0.137 |
| CACCAAA | 0.128 | 0.216 | 0.0789 | -0.898 | 0.163 | -0.63 | -0.0246 | 0.111 | 0.183 |
| ATCTCAG | -0.0656 | -0.123 | -0.767 | -0.679 | -0.0664 | -1.36 | 0.047 | -0.0484 | -0.182 |
| ATTCGAG | 0.0647 | 0.0431 | 0.0264 | 0.302 | 0.0749 | -0.713 | 0.0591 | 0.0672 | 0.0844 |
| TTTCTCA | -0.016 | 0.0818 | 0.208 | -0.706 | 0.0271 | 0.0433 | -0.162 | 0.163 | -0.00379 |
| GATCACC | 0.0368 | 0.108 | 0.264 | 0.442 | -0.0182 | 0.757 | 0.0702 | 0.175 | 0.198 |
| CGATCAA | -0.106 | 0.0025 | 0.439 | 0.815 | -0.135 | 0.792 | -0.101 | -0.102 | 0.00871 |
| TTGGTGG | 0.238 | 0.114 | 0.237 | 0.363 | 0.222 | 0.0753 | 0.31 | 0.0613 | 0.12 |
| CTAGCAG | 0.0879 | 0.0226 | -0.557 | -0.554 | 0.163 | -0.982 | 0.218 | 0.0587 | -0.0243 |
| ACAGATA | 0.00562 | 0.0948 | -0.0725 | -1.25 | 0.148 | -0.355 | 0.126 | 0.0112 | -0.00584 |
| AGTACAA | 0.169 | 0.0653 | 0.228 | 0.338 | 0.00141 | 0.197 | -0.395 | 0.114 | 0.185 |

Source: the supplement of paper PMC7826260
